Experimental data published in article PMC7819943, “Rice protein-binding microarrays: a tool to detect cis-acting elements near promoter regions in rice”.
This is one part of the list.

The sequences below were run against T1, OsWOX13 (Oryza sativa, UniProt Q5QMM3 1-267) (assay: protein-binding microarray (RPBM); PBS, 2% BSA, 51.3 ng/ul salmon testes DNA, 50 uM zinc acetate, 200 nM TF, 25 C, 1 h; high values mean tight binding). Conditions: protein: recombinant; tags: N-terminal polyhistidine and DsRed monomer fusion (pET32a); label: CyDye5-dUTP incorporated in the synthesized complementary strand; 3' TTTTT single-stranded linker to array surface; dsDNA, one strand shown.
T1 sequence: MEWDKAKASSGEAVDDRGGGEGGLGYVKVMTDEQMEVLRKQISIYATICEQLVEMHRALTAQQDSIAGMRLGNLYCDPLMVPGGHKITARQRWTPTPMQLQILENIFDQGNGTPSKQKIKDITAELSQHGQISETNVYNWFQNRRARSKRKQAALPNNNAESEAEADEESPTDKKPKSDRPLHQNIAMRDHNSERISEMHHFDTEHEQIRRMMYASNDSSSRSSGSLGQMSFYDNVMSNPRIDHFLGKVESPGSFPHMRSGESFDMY
Summary of the method: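 In PBS with 2% BSA, salmon testes DNA and 50 µM zinc acetate, 200 nM protein was incubated on a custom Agilent array at 25 °C for 1 h and then washed off. The array had been made double-stranded by primer extension with Cy5-dUTP and blocked with 2% BSA. The proteins were transcription factors fused N-terminally to polyhistidine and DsRed, expressed in E. coli BL21-CodonPlus and purified on Ni–NTA. The binding signal is per-feature fluorescence intensity (arbitrary units) from an Axon 4000B scanner.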

Compared with “TATATAATTAACTTGGACCATAGTACATGTGGTTTTATAACGGAGTCACCTAGTGCAG”, “AAATGATGTTGATACTTGATTGGTGATATGGCACTAGTGTCGGAGTCACCTAGTGCAG” is higher in binding signal: 11100 fluorescence intensity (a.u.) for the first, 34600 fluorescence intensity (a.u.) for the second.

Compared with “GAAATTGGAGATGATGTGACTGAAAAGTTGTGTGTGTATGCGGAGTCACCTAGTGCAG”, “ATCTAGGATTGGATAAACGAATTTGAACGAATTCATACATCGGAGTCACCTAGTGCAG” is lower in binding signal: 17200 fluorescence intensity (a.u.) for the first, 5800 fluorescence intensity (a.u.) for the second.

Compared with “GTTGTGATTGGTTGAGTAGTAGAGGTAGGTGGGAAAAGTGCGGAGTCACCTAGTGCAG”, “CATAAATTGCATGGGACAATCCTCTAGTTTTATTAAAAGACGGAGTCACCTAGTGCAG” is lower in binding signal: 43500 fluorescence intensity (a.u.) for the first, 12200 fluorescence intensity (a.u.) for the second.

First: AAAGATTTATACATACTGCATGTTGGAATTTGAAGTCCATCGGAGTCACCTAGTGCAG
Second: ACGCTATAATTAACTGTTTCGTTTTCCGTGCCGAGGGAATCGGAGTCACCTAGTGCAG
The binding signal of the first is lower: 3640 fluorescence intensity (a.u.) for the first, 22900 fluorescence intensity (a.u.) for the second.

Compared with “TACGATTGACAAAGATATAAAATTTAAATTTAAAAGTATCCGGAGTCACCTAGTGCAG”, “GGGAGATAGATCTTTAATCCTGATTGATGATACCAATCGGCGGAGTCACCTAGTGCAG” is higher in binding signal: 20800 fluorescence intensity (a.u.) for the first, 29400 fluorescence intensity (a.u.) for the second.

Compared with “AGATACTTAATTAGTGTCTTCTATAAGCAAAGGTCAGGAACGGAGTCACCTAGTGCAG”, “GCTTAAATGATTTTCTTTGTTTGGCTAATTGGTACATGTTCGGAGTCACCTAGTGCAG” is higher in binding signal: 11300 fluorescence intensity (a.u.) for the first, 45500 fluorescence intensity (a.u.) for the second.

Going from “TATTGTCACTGCAATTTGATGGAGATTAGGCCGTGAAGTGCGGAGTCACCTAGTGCAG” to “GCTGATAGAATGTGCAGTTGGTGATTAGTGCGGACCTGGGCGGAGTCACCTAGTGCAG”, the binding signal rises from 3630 fluorescence intensity (a.u.) to 47100 fluorescence intensity (a.u.).

Compared with “AATTAATGTCATGATGACCAATGTCGTGATGACTTCATATCGGAGTCACCTAGTGCAG”, “CTGAATCCAATCATTCGCTTTCTAAAAGGAAGCAGCTCATCGGAGTCACCTAGTGCAG” is lower in binding signal: 4510 fluorescence intensity (a.u.) for the first, 3260 fluorescence intensity (a.u.) for the second.

Going from “TTACGTGGACATCTCAATTATAATCTTTGTAAATATAGATCGGAGTCACCTAGTGCAG” to “TATTGACTATTTTATTATTTGATGTCATTTAAGGTTCTAACGGAGTCACCTAGTGCAG”, the binding signal falls from 3390 fluorescence intensity (a.u.) to 3180 fluorescence intensity (a.u.).

Compared with “CGTAATTACTTTCCCCATCCATCAACCATAGTAGTCTTCCCGGAGTCACCTAGTGCAG”, “ATGTACGGCTAGTATTGATTGATGTCGCCAGGCGTTAGCTCGGAGTCACCTAGTGCAG” is lower in binding signal: 38400 fluorescence intensity (a.u.) for the first, 21800 fluorescence intensity (a.u.) for the second.

First: GACGGATTAATTAGGCTTAATAAATTTGTCTCGCAGTTTACGGAGTCACCTAGTGCAG
Second: TCTCAATTATACTAACTGCAAATCCAGATGCCCCAAACAACGGAGTCACCTAGTGCAG
The binding signal of the first is higher: 19800 fluorescence intensity (a.u.) for the first, 9220 fluorescence intensity (a.u.) for the second.

First: GACCTTGATGAGGGAGGGGATGGAGCGGATGCGGCGGCGGCGGAGTCACCTAGTGCAG
Second: TTTTAAGAAAATTGAATTAAATGAGTCCATTAGGTATGCACGGAGTCACCTAGTGCAG
The binding signal of the first is higher: 7830 fluorescence intensity (a.u.) for the first, 6370 fluorescence intensity (a.u.) for the second.

Going from “TATGATAAATTACATTTGGGAGGTGTAATAGTATTTTGTTCGGAGTCACCTAGTGCAG” to “GTAATTGAATATTTACAATGAAGTCTCGACGGTATTCAATCGGAGTCACCTAGTGCAG”, the binding signal rises from 9260 fluorescence intensity (a.u.) to 24700 fluorescence intensity (a.u.).

First: GCTAATTAAGTCCATTGCACATAGATCGATATGTGTACACCGGAGTCACCTAGTGCAG
Second: GCAAATATAAATCATTTATGAGTAAAAGTTTTATTTGTGTCGGAGTCACCTAGTGCAG
The binding signal of the first is higher: 27700 fluorescence intensity (a.u.) for the first, 9490 fluorescence intensity (a.u.) for the second.

Compared with “TTATTTGACACAATGCGATTGAATTGGGGTGCAGGAGTATCGGAGTCACCTAGTGCAG”, “TAAATTAACATGCATTAATCCTCTTATTTTAATTTTAAATCGGAGTCACCTAGTGCAG” is lower in binding signal: 6780 fluorescence intensity (a.u.) for the first, 5780 fluorescence intensity (a.u.) for the second.

Going from “GAATTTAATTACCAACTGCAATGGCGTATTCGAGTGATGTCGGAGTCACCTAGTGCAG” to “CTATGATTTGATGATGGTGGGACACGCACCAACCAATCAACGGAGTCACCTAGTGCAG”, the binding signal rises from 19900 fluorescence intensity (a.u.) to 48800 fluorescence intensity (a.u.).

First: TTAATTGTTTGCCGTCTGCTAATCTTGATTCTTGCACAAACGGAGTCACCTAGTGCAG
Second: ATTAAATTTAAAGTTGATTTTGGGATCTTTTCATGGTAATCGGAGTCACCTAGTGCAG
The binding signal of the first is lower: 6380 fluorescence intensity (a.u.) for the first, 31700 fluorescence intensity (a.u.) for the second.

Going from “AGATAGATAGATAGATAGATACATGGTGAAGAAGATTCTACGGAGTCACCTAGTGCAG” to “GACCTGGTGATTGGTGGCAGCCCGTGCAACAACCTTGCTGCGGAGTCACCTAGTGCAG”, the binding signal rises from 24500 fluorescence intensity (a.u.) to 32000 fluorescence intensity (a.u.).

First: CCTTCATTAATTAATATATGATGTTGGGAGTATATCTTTACGGAGTCACCTAGTGCAG
Second: CCTAATCACCTGATTAGTTGAAAATGGTTAAAACCCCGTACGGAGTCACCTAGTGCAG
The binding signal of the first is lower: 21900 fluorescence intensity (a.u.) for the first, 27800 fluorescence intensity (a.u.) for the second.

Compared with “GGGCTAAAATTTTATTTACTCTACTCCCTCCATATTCCCTCGGAGTCACCTAGTGCAG”, “ATGAAATTTACTCCATATATGTAATTACCTACAAAGCAGTCGGAGTCACCTAGTGCAG” is higher in binding signal: 3500 fluorescence intensity (a.u.) for the first, 7630 fluorescence intensity (a.u.) for the second.

First: AATAATTGTCACCAAGAGTCCAAGACCAAGTGGGCATCAACGGAGTCACCTAGTGCAG
Second: AACCAATCACGTCGCAGATAAGGCCTGACAGGTGTGCCCCCGGAGTCACCTAGTGCAG
The binding signal of the first is lower: 7460 fluorescence intensity (a.u.) for the first, 32700 fluorescence intensity (a.u.) for the second.

Going from “CTAACGAACCAATCAATCACCCGTGTGCGCTTATCGGGTGCGGAGTCACCTAGTGCAG” to “CGTTTAATTATTTTAATTCGTATCAAATATCCGATGTGACCGGAGTCACCTAGTGCAG”, the binding signal falls from 28400 fluorescence intensity (a.u.) to 25500 fluorescence intensity (a.u.).

Compared with “CATCAATTTTAATAATCAATAATCATCCAAACATTAGTGACGGAGTCACCTAGTGCAG”, “CAAATTTGGTGGCCCAGTCATTGCAATCATGATGAGAGTCCGGAGTCACCTAGTGCAG” is lower in binding signal: 13100 fluorescence intensity (a.u.) for the first, 7840 fluorescence intensity (a.u.) for the second.

Going from “AACTTAAAATTCCAATCACAATTGTTTCTCAAATGTTTGGCGGAGTCACCTAGTGCAG” to “TCTTCTGTGATTTGCTCATTTCGTTCCCCAAACAGGGCGCCGGAGTCACCTAGTGCAG”, the binding signal falls from 29500 fluorescence intensity (a.u.) to 23700 fluorescence intensity (a.u.).

Compared with “TCTTCATGCGTTAATTATTAACTGAAACTTTGTTGTGCTACGGAGTCACCTAGTGCAG”, “CCCAATTGTTTGTCATGTAATTTGAGTCCACATCATCACACGGAGTCACCTAGTGCAG” is lower in binding signal: 14600 fluorescence intensity (a.u.) for the first, 12000 fluorescence intensity (a.u.) for the second.

First: ATTACGCCATGATTTGACAATGTGATGTTACAGTAAACATCGGAGTCACCTAGTGCAG
Second: TTCTGACAGGAATTGAAGTGTAAAATGTTGCCATTCCATACGGAGTCACCTAGTGCAG
The binding signal of the first is lower: 7670 fluorescence intensity (a.u.) for the first, 14800 fluorescence intensity (a.u.) for the second.

Going from “AACAGGACCTTAATTGATTAGAAGAGCATTAATTATTTTACGGAGTCACCTAGTGCAG” to “CCCTCACGACCAATCATGTCCCACCTCTCCCCTCTATATACGGAGTCACCTAGTGCAG”, the binding signal falls from 18800 fluorescence intensity (a.u.) to 5580 fluorescence intensity (a.u.).
